Out of some 410,000 compounds screened, about 850 (0.21%) were called active. The shares of active, inactive and inconclusive entries below differ from those in the screen. The call rests on the fitted dose curve; in most records, active means well fitted inhibition curve with a large enough effect; inconclusive means small, poorly fitted or top-dose-only effect, or another doubt; inactive means no such curve, though single readings can be large or run the other way. No potency is given beside an inconclusive call; the fits are too rough.
biological target: Glutaminase kidney isoform, mitochondrial (Homo sapiens) (UniProt O94925); experiment: qHTS for Inhibitors of Glutaminase (GLS); settings: GLS enzymatic activity, qHTS titration; series mostly up to 45.5 µM
Summary of the method: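 hKGA in 45 mM KH2PO4 pH 8.2, 0.02% Tween-20 with pin-transferred compounds; 1 mM L-glutamine (stock) plus glutamate oxidase/HRP/Amplex Red coupling added. Fluorescence read initially and after 30 min at RT.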
Potency means the concentration at half of the fitted maximal effect; tags describe the fitted curve by direction and shape.

Sequence of UniProt O94925 (O94925 whole entry, looked up, canonical isoform): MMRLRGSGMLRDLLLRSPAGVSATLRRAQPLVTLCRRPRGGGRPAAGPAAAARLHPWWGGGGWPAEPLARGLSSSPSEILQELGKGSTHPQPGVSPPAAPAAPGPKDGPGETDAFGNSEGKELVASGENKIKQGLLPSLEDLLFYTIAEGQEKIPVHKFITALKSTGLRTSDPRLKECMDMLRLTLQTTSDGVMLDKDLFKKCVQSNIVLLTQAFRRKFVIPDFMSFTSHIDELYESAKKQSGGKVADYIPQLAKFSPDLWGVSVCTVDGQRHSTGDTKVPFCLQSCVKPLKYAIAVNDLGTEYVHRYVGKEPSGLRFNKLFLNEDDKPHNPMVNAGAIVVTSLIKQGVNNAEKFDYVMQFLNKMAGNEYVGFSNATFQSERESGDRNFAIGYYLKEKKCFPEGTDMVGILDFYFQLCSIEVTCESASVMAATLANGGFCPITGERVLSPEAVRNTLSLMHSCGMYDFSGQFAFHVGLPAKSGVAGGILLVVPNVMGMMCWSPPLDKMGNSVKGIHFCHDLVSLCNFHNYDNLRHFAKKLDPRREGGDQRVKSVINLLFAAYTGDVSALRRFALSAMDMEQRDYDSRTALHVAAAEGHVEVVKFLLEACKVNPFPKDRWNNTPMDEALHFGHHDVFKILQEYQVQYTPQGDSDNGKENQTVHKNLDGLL

SMILES	Potency
CCCOC(=O)c1ccc(NC(=O)C2C3C=CC(O3)C2C(=O)O)cc1 (stereo not drawn)	inactive
Cn1cnnc1SCC(=O)c1cc2ccccc2oc1=O	inactive
CCc1ccc2occ(CC(=O)Nc3nnc(C)s3)c2c1	inactive
Cc1ccccc1C(=O)NNC(=O)Cc1cccc2ccccc12	inconclusive [inhibitor, single point]
COc1ccc(Br)cc1/C=C(\C(=O)O)c1ccc(S(=O)(=O)N2CCCC2)s1	inconclusive [inhibitor, single point]
Cc1c(CCC(=O)O)c(=O)oc2c(C)c(OCc3ccccc3Cl)ccc12	inconclusive [inhibitor, single point]
CCOC(=O)C1(Cc2ccccc2)CCN(Cc2cccc(OC)c2O)CC1	inconclusive [inhibitor, partial curve]
Cc1ccc2cc3cc(C(=O)N4CC(C)CC(C)C4)oc3nc2c1 (stereo not drawn)	inconclusive [inhibitor, single point]
Cc1ccc2c(c1)C(N1CCCC1=O)CC(c1ccco1)N2 (stereo not drawn)	inconclusive [inhibitor, single point]
CCc1ccc(NC(=O)C(C)Sc2nc(-c3ccco3)c(C#N)c(=O)[nH]2)cc1 (stereo not drawn)	active: 20 µM
CCCCC(=O)NC(c1ccc(Cl)cc1Cl)c1ccc2cccnc2c1O (stereo not drawn)	inconclusive [inhibitor, single point]
CCN=C1Cn2c(nc3scc(-c4ccccc4)c3c2=O)CN1CC	inconclusive [inhibitor, partial curve, poor fit]
COc1ccc(NC2=NCCC(=O)N2Cc2cccs2)cc1	inconclusive [inhibitor, single point]
C[C@H](O)[C@@H]1C(=O)N2CCc3c([nH]c4ccccc34)[C@@H]2C[C@@H]1N(C)C(=O)Nc1cccc2ccccc12	inconclusive [inhibitor, partial curve, poor fit]
Cc1cc2oc(=O)cc(CN3CCCCC3C)c2cc1Cl (stereo not drawn)	inconclusive [inhibitor, single point]
Cn1c(=O)c2cc(S(=O)(=O)NCCC(=O)NCCc3ccc(Cl)cc3)ccc2n(C)c1=O	inconclusive [inhibitor, single point]
CCN1CCN(CCNC(=O)c2ccc(/C=C3/Sc4ccccc4N(Cc4cccc(Cl)c4)C3=O)cc2)CC1	inconclusive [inhibitor, partial curve, poor fit]
COc1ccc(C(=O)NCCn2cc(SCC(=O)NCc3ccco3)c3ccccc32)cc1	inconclusive [inhibitor, single point]

Reference: PubChem BioAssay AID624170 (National Center for Advancing Translational Sciences (NCATS), 2012)
